Measured values taken from the supplement of paper PMC8728848.
The list shows a part of the results.

How the values were obtained:
Assay in all cases: glycan array binding signal (z-score within array); higher = stronger binding
Conditions in all cases: glycan notation: IUPAC condensed, linker removed
[1] = target: Gal(b1-3)[Fuc(a1-4)]GlcNAc(b1-6)GalNAc
Outline: (§1)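 The binding signal is a Z-score computed within each array. Data were drawn from 3228 arrays in the Consortium for Functional Glycomics database, restricted to those with a known protein sequence. Scores were averaged over arrays of the same protein sequence at different concentrations or buffers, and over linkers, and negative values can be taken as non-binding.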

[2] = target: Gal(b1-3)[GlcNAc(b1-6)]GalNAc
Outline: as §1

[3] = target: Gal(b1-3)[Neu5Ac(a2-6)]GalNAc
Outline: as §1

[4] = target: Gal(b1-3)[Neu5Ac(a2-6)]GlcNAc(b1-4)Gal(b1-4)Glc
Outline: as §1

[5] = target: Gal(b1-3)[Neu5Ac(b2-6)]GalNAc
Outline: as §1

Gal(b1-4)Gal = target: Gal(b1-4)Gal
Outline: as §1

[6] = target: Gal(b1-4)GalNAc(a1-3)[Fuc(a1-2)]Gal(b1-4)GlcNAc
Outline: as §1

[7] = target: Gal(b1-4)GalNAc(b1-3)[Fuc(a1-2)]Gal(b1-4)GlcNAc
Outline: as §1

Gal(b1-4)Glc = target: Gal(b1-4)Glc
Outline: as §1

Gal(b1-4)Glc6S = target: Gal(b1-4)Glc6S
Outline: as §1

Gal(b1-4)GlcNAc = target: Gal(b1-4)GlcNAc
Outline: as §1

[8] = target: Gal(b1-4)GlcNAc(a1-6)Gal(b1-4)GlcNAc
Outline: as §1

Gal(b1-4)GlcNAc(b1-2)Man = target: Gal(b1-4)GlcNAc(b1-2)Man
Outline: as §1

[9] = target: Gal(b1-4)GlcNAc(b1-2)Man(a1-3)Man(b1-4)GlcNAc(b1-4)GlcNAc
Outline: as §1

[10] = target: Gal(b1-4)GlcNAc(b1-2)Man(a1-3)[Gal(b1-4)GlcNAc(b1-2)Man(a1-6)]Man(b1-4)GlcNAc(b1-4)GlcNAc
Outline: as §1

[11] = target: Gal(b1-4)GlcNAc(b1-2)Man(a1-3)[Gal(b1-4)GlcNAc(b1-2)Man(a1-6)]Man(b1-4)GlcNAc(b1-4)[Fuc(a1-6)]GlcNAc
Outline: as §1

[12] = target: Gal(b1-4)GlcNAc(b1-2)Man(a1-3)[Gal(b1-4)GlcNAc(b1-2)Man(a1-6)][Gal(b1-4)GlcNAc(b1-4)]Man(b1-4)GlcNAc(b1-4)[Fuc(a1-6)]GlcNAc
Outline: as §1

[13] = target: Gal(b1-4)GlcNAc(b1-2)Man(a1-3)[Gal(b1-4)GlcNAc(b1-2)Man(a1-6)][GlcNAc(b1-4)]Man(b1-4)GlcNAc(b1-4)[Fuc(a1-6)]GlcNAc
Outline: as §1

[14] = target: Gal(b1-4)GlcNAc(b1-2)Man(a1-3)[GlcNAc(b1-2)Man(a1-6)]Man(b1-4)GlcNAc(b1-4)GlcNAc
Outline: as §1

[15] = target: Gal(b1-4)GlcNAc(b1-2)Man(a1-3)[GlcNAc(b1-4)][Gal(b1-4)GlcNAc(b1-2)Man(a1-6)]Man(b1-4)GlcNAc(b1-4)GlcNAc
Outline: as §1

[16] = target: Gal(b1-4)GlcNAc(b1-2)Man(a1-3)[Man(a1-6)]Man(b1-4)GlcNAc(b1-4)GlcNAc
Outline: as §1

[17] = target: Gal(b1-4)GlcNAc(b1-2)Man(a1-6)Man(b1-4)GlcNAc(b1-4)GlcNAc
Outline: as §1

[18] = target: Gal(b1-4)GlcNAc(b1-2)Man(a1-6)[GlcNAc(b1-2)Man(a1-3)]Man(b1-4)GlcNAc(b1-4)GlcNAc
Outline: as §1

[19] = target: Gal(b1-4)GlcNAc(b1-2)Man(a1-6)[Man(a1-3)]Man(b1-4)GlcNAc(b1-4)GlcNAc
Outline: as §1

[20] = target: Gal(b1-4)GlcNAc(b1-2)[Gal(b1-4)GlcNAc(b1-4)]Man(a1-3)[Gal(b1-4)GlcNAc(b1-2)Man(a1-6)]Man(b1-4)GlcNAc(b1-4)GlcNAc
Outline: as §1

[21] = target: Gal(b1-4)GlcNAc(b1-2)[Gal(b1-4)GlcNAc(b1-4)]Man(a1-3)[Gal(b1-4)GlcNAc(b1-2)[Gal(b1-4)GlcNAc(b1-6)]Man(a1-6)]Man(b1-4)GlcNAc(b1-4)GlcNAc
Outline: as §1

[22] = target: Gal(b1-4)GlcNAc(b1-2)[Gal(b1-4)GlcNAc(b1-4)]Man(a1-3)[GlcNAc(b1-4)][Gal(b1-4)GlcNAc(b1-2)Man(a1-6)]Man(b1-4)GlcNAc(b1-4)GlcNAc
Outline: as §1

[23] = target: Gal(b1-4)GlcNAc(b1-2)[Gal(b1-4)GlcNAc(b1-4)]Man(a1-3)[GlcNAc(b1-4)][Gal(b1-4)GlcNAc(b1-2)[Gal(b1-4)GlcNAc(b1-6)]Man(a1-6)]Man(b1-4)GlcNAc(b1-4)GlcNAc
Outline: as §1

[24] = target: Gal(b1-4)GlcNAc(b1-2)[Gal(b1-4)GlcNAc(b1-6)]Man(a1-6)[Gal(b1-4)GlcNAc(b1-2)Man(a1-3)]Man(b1-4)GlcNAc(b1-4)GlcNAc
Outline: as §1

[25] = target: Gal(b1-4)GlcNAc(b1-2)[Gal(b1-4)GlcNAc(b1-6)]Man(a1-6)[Gal(b1-4)GlcNAc(b1-2)Man(a1-3)]Man(b1-4)GlcNAc(b1-4)[Fuc(a1-6)]GlcNAc
Outline: as §1

[26] = target: Gal(b1-4)GlcNAc(b1-2)[Gal(b1-4)GlcNAc(b1-6)]Man(a1-6)[GlcNAc(b1-4)][Gal(b1-4)GlcNAc(b1-2)Man(a1-3)]Man(b1-4)GlcNAc(b1-4)GlcNAc
Outline: as §1

[27] = target: Gal(b1-4)GlcNAc(b1-2)[Gal(b1-4)GlcNAc(b1-6)]Man(a1-6)[GlcNAc(b1-4)][Gal(b1-4)GlcNAc(b1-2)[Gal(b1-4)GlcNAc(b1-4)]Man(a1-3)]Man(b1-4)GlcNAc(b1-4)[Fuc(a1-6)]GlcNAc
Outline: as §1

[28] = target: Gal(b1-4)GlcNAc(b1-3)Gal(b1-3)GalNAc
Outline: as §1

[29] = target: Gal(b1-4)GlcNAc(b1-3)Gal(b1-3)GlcNAc
Outline: as §1

[30] = target: Gal(b1-4)GlcNAc(b1-3)Gal(b1-4)Glc
Outline: as §1

[31] = target: Gal(b1-4)GlcNAc(b1-3)Gal(b1-4)GlcNAc
Outline: as §1

[32] = target: Gal(b1-4)GlcNAc(b1-3)Gal(b1-4)GlcNAc(b1-2)Man(a1-3)[Gal(b1-4)GlcNAc(b1-3)Gal(b1-4)GlcNAc(b1-2)Man(a1-6)]Man(b1-4)GlcNAc(b1-4)GlcNAc
Outline: as §1

[33] = target: Gal(b1-4)GlcNAc(b1-3)Gal(b1-4)GlcNAc(b1-2)Man(a1-3)[Gal(b1-4)GlcNAc(b1-3)Gal(b1-4)GlcNAc(b1-2)Man(a1-6)]Man(b1-4)GlcNAc(b1-4)[Fuc(a1-6)]GlcNAc
Outline: as §1

B1: OGAA (protein)
chain: MVQKESQATLEERESELSSNPAASAGASLEPPAAPAPGEDNPAGAGGAAVAGAAGGARRFLCGVVEGFYGRPWVMEQRKELFRRLQKWELNTYLYAPKDDYKHRMFWREMYSVEEAEQLMTLISAAREYEIEFIYAISPGLDITFSNPKEVSTLKRKLDQVSQFGCRSFALLFADIDHNMCAADKEVFSSFAHAQVSITNEIYQYLGEPETFLFCPTEYCGTFCYPNVSQSPYLRTVGEKLLPGIEVLWTGPKVVSKEIPVESIEEVSKIIKRAPVIWDNIHANDYDQKRLFLGPYKGRSTELIPRLKGVLTNPNCEFEANYVAIHTLATWYKSNMNGVRKDVVMTDSEDSTVSIQIKLENEGSDEDIETDVLYSPQMALKLALTEWLQEFGVPHQY
glycan array binding signal (z-score) [1]: -0.104 | glycan array binding signal (z-score) [2]: -0.1 | glycan array binding signal (z-score) [3]: -0.044 | glycan array binding signal (z-score) [4]: -0.076 | glycan array binding signal (z-score) [5]: -0.096 | glycan array binding signal (z-score) (Gal(b1-4)Gal): -0.15 | glycan array binding signal (z-score) [6]: -0.108 | glycan array binding signal (z-score) [7]: -0.153 | glycan array binding signal (z-score) (Gal(b1-4)Glc): 0.005 | glycan array binding signal (z-score) (Gal(b1-4)Glc6S): -0.099 | glycan array binding signal (z-score) (Gal(b1-4)GlcNAc): -0.02 | glycan array binding signal (z-score) [8]: -0.062 | glycan array binding signal (z-score) (Gal(b1-4)GlcNAc(b1-2)Man): -0.078 | glycan array binding signal (z-score) [9]: -0.126 | glycan array binding signal (z-score) [10]: -0.089 | glycan array binding signal (z-score) [11]: -0.041 | glycan array binding signal (z-score) [12]: -0.076 | glycan array binding signal (z-score) [13]: -0.009 | glycan array binding signal (z-score) [14]: -0.052 | glycan array binding signal (z-score) [15]: -0.136 | glycan array binding signal (z-score) [16]: -0.071 | glycan array binding signal (z-score) [17]: -0.092 | glycan array binding signal (z-score) [18]: -0.081 | glycan array binding signal (z-score) [19]: -0.022 | glycan array binding signal (z-score) [20]: -0.128 | glycan array binding signal (z-score) [21]: -0.148 | glycan array binding signal (z-score) [22]: 0.029 | glycan array binding signal (z-score) [23]: 0.085 | glycan array binding signal (z-score) [24]: -0.08 | glycan array binding signal (z-score) [25]: 0.085 | glycan array binding signal (z-score) [26]: -0.05 | glycan array binding signal (z-score) [27]: 0.002 | glycan array binding signal (z-score) [28]: -0.11 | glycan array binding signal (z-score) [29]: -0.097 | glycan array binding signal (z-score) [30]: -0.1 | glycan array binding signal (z-score) [31]: -0.093 | glycan array binding signal (z-score) [32]: 0.053 | glycan array binding signal (z-score) [33]: 0.021
